Assay results from PubChem BioAssay AID1347073 (National Center for Advancing Translational Sciences (NCATS), 2019).
About 200 (0.44%) of roughly 45,000 compounds were called active. Roughly 7% stayed inconclusive and do not appear here. Calls follow the shape of the dose curve; as a rule, active = well fitted activation curve with a large enough effect; inconclusive = small, poorly fitted or top-dose-only effect; inactive = no such curve, though single readings can be large or run the other way. Some of the results follow.

Test: qHTS of TDP-43 Inhibitors: NCGC Sytravon Library Screen; also: nearly all actives have a fitted effect of over 55% in size; as to growth rescue (activation): 0% is about no effect
Conditions: yeast TDP-43 toxicity rescue, BacTiter-Glo growth, 24 h; series mostly up to 46.1 µM; growth rescue (activation): at the top concentration
Summary of the method: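 TDP-43-expressing yeast, pregrown in raffinose, seeded at OD600 0.02 in galactose medium with compound for 24 hr at 30 deg C. Growth read by BacTiter-Glo luminescence, so rescue of toxicity appears as activation.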
Potency is read from the fitted curve at half-maximal effect.

Compound	growth rescue (activation)	Potency
O=C(Nc1ccc(Cc2ccc(NC(=O)C3CC3)cc2)cc1)C1CC1	inactive: 4.51%	–
Clc1ccc(SCc2cn3ccccc3n2)cc1	inactive: 16.7%	–
COc1ccc(/C=N/NC(=O)c2[nH]c3ccc(Br)cc3c2-c2ccccc2)c(C(=O)O)c1OC	inactive: -4.09%	–
CCOC(=O)Cc1csc(N/N=C/c2ccccc2)n1	inactive: 17.9%	–
O=C(Nc1cccc(Cl)c1)c1csc([C@@H]2O[C@H](CO)[C@H](O)[C@H](O)[C@H]2O)n1	inactive: 2.12%	–
CC(=O)Nc1cccc(-c2csc(C(O)c3ccccc3)n2)c1 (centres undefined)	inactive: -3.62%	–
O=C(COC(=O)C1C2CC3OC(=O)C1C3C2)Nc1cccc(C(F)(F)F)c1 (centres undefined)	inactive: 7.23%	–
O=C(CC(=O)Nc1nc(C23CC4CC(CC(C4)C2)C3)cs1)NCCO	inactive: 11.3%	–
CCOc1ccccc1NC(=S)Nc1ccc(S(N)(=O)=O)cc1	inactive: -0.249%	–
Cc1nn(S(=O)(=O)c2ccccc2)c(C)c1S(=O)(=O)N1CCOCC1	inactive: -13.8%	–
CCOc1ccc(S(=O)(=O)NCCC(=O)OCC(=O)NC(=O)c2cccn2C)cc1	inactive: 3.3%	–
O=[N+]([O-])c1ccc(COc2ccc(-c3[nH]ncc3-c3ccc(Cl)cc3)c(O)c2)cc1	inactive: 0.433%	–
COc1cc(C(=O)NC(=S)Nc2ccc3[nH]c(=O)[nH]c3c2)cc(OC)c1OC	inactive: -1.85%	–
CC(=O)Nc1ccc(NC(=O)C2(C)Cc3c(-c4ccccc4)ccnc3O2)cc1 (centres undefined)	inactive: -2.48%	–
O=C1CN(C(=O)COC(=O)[C@@H]2CCCN2S(=O)(=O)c2ccc(Cl)cc2)c2ccccc2N1	inactive: 21.1%	–
CCC(C)NC(=O)c1ccccc1NC(=O)CN(c1cc(C)ccc1OC)S(C)(=O)=O (centres undefined)	inactive: -2.69%	–
O=C(/C=C/c1ccco1)N(Cc1ccc(Cl)cc1)C1CCS(=O)(=O)C1 (centres undefined)	inactive: -28.4%	–
O=C(O)CCc1ccc(-c2cccs2)n1NC(=O)c1cccs1	inactive: -1.56%	–
COc1ccccc1OCCCOc1c(Cl)cc(C)cc1Cl	inactive: -7.88%	–
CCOc1ccc(CN(C)CC(=O)Nc2ccc(N3CCOCC3)cc2)cc1OC	inactive: 10.4%	–
COC(=O)c1ccc(Oc2nc(NC(C)C)nc(NC(C)C)n2)cc1	inactive: 1.98%	–
Cc1ccc(N2CC(C(=O)Nc3ccc(S(=O)(=O)Nc4nccs4)cc3)CC2=O)cc1 (centres undefined)	inactive: 18.1%	–
CC(=O)c1ccc(Cc2ccccc2)cc1	inactive: 13.1%	–
CCOc1ccc(/C=N/NC(=O)c2[nH]ncc2Br)c(O)c1	inactive: -14.4%	–
CCc1ccc2nc(SCC(=O)Nc3ccccc3N3CCOCC3)c(C#N)cc2c1	inactive: 2.13%	–
Cc1cccc(N2CCN(C(C)C(=O)N3CCc4ccccc43)CC2)c1C (centres undefined)	inactive: 12.8%	–

Compound	growth rescue (activation)	Potency
CC(NS(=O)(=O)c1ccc([N+](=O)[O-])cc1)C(=O)NN (centres undefined)	inactive: 19.5%	–
CCOc1ccc(NC(=O)N2CC(C)OC(C)C2)cc1 (centres undefined)	inactive: 4.07%	–
CC(OC(=O)c1ccccc1N1C(=O)C2C3CCC(C3)C2C1=O)C(=O)c1ccccc1 (centres undefined)	inactive: -3.11%	–
COc1ccc(-c2nc(C#N)c(N3CCC(C)CC3)o2)cc1	inactive: 7.37%	–
Cc1nn(C(=O)c2cccc([N+](=O)[O-])c2)c(C)c1Br	inactive: 0.226%	–
CC1(C)C=C(c2ccc(C=O)s2)CC(C)(C)N1C=O	inactive: 1.27%	–
CCC(C)NC(=O)C1c2ccccc2Oc2ccccc21 (centres undefined)	inactive: -5.08%	–
COc1ccc(CN(C)C(=O)c2oc3ccccc3c2CSC)cc1F	inactive: 9.46%	–
CC1(c2ccc(Cl)cc2)NC(=O)N(CN2CCOCC2)C1=O (centres undefined)	inactive: -4.25%	–
COC(=O)N/N=C(\C)c1ccc(C)c([N+](=O)[O-])c1	inactive: -2.67%	–
O=[N+]([O-])c1ccc(NCCCO)c(C(F)(F)F)c1	inactive: 16.7%	–
O=C(N/N=C/c1ccccc1[N+](=O)[O-])c1ccc2nc[nH]c2c1	inactive: 12.6%	–
Cc1ccc(N(C(C)C(=O)N2CCCC2)S(C)(=O)=O)cc1 (centres undefined)	inactive: 5.58%	–
O=C(NCCc1c[nH]c2ccc(Cl)cc12)c1ccc([N+](=O)[O-])cc1	inactive: -3.76%	–
COc1ccc(CCN(Cc2cccs2)S(=O)(=O)c2ccc(S(=O)(=O)N3CCC(C)CC3)cc2)cc1OC	inactive: 10.7%	–
Cc1cc(C)c[n+](C(C)C(=O)c2ccc(-c3ccccc3)cc2)c1 (centres undefined)	inactive: 16.3%	–
Cc1nc2ccc(C(=O)NCCc3c[nH]c4ccccc34)cn2c1N(C)C(=O)CCc1ccccc1	inactive: 1.79%	–
O=C(CN(CCc1ccccc1)Cc1ccccc1)Oc1ccccc1P(=O)(O)O	inactive: -5.61%	–
CCOc1ccc2nc(COC(=O)c3cccs3)c(C(=O)c3ccccc3)[n+]([O-])c2c1	inactive: -19.3%	–
Cc1cc(C(=O)COC(=O)C2=NN(c3ccccc3)C(=O)CC2)c(C)n1CC(F)(F)F	inactive: 4.74%	–
O=C(CCNS(=O)(=O)c1cccc2nsnc12)NCc1ccccc1	inactive: 8.4%	–
Cc1cc(C)n(C(=O)CNC(=O)C2COc3ccccc3O2)n1 (centres undefined)	inactive: -6.02%	–
COc1ccc(Br)cc1/C=N/N1C(=O)CSC1=S	inactive: 12.2%	–
Cc1ccc(-n2cc(CN3CCNC(=O)CC3)c(-c3ccc(F)cc3)n2)cc1	inactive: 34.8%	–
CCn1c(CCNC(=O)c2ccc(C)cc2)nnc1SCc1ccc(Cl)c(Cl)c1	inactive: 24.6%	–
COCCN(Cc1cn(C)nc1-c1ccccc1F)C(C)C	inactive: -19.7%	–

Compound	growth rescue (activation)	Potency
COc1ccc(OC)c(S(=O)(=O)N2CCC(C(=O)N(C)Cc3ccccc3)CC2)c1	inactive: 11.7%	–
COc1ccc2cc(C#N)c(SCC(=O)Nc3nonc3C)nc2c1	inactive: 26.3%	–
CC1CC(C)CN(C2CCCCC2NS(=O)(=O)c2ccc(Cl)cc2)C1 (centres undefined)	inactive: -15.7%	–
CC(NC(=O)COC(=O)COc1ccc(Cl)cc1)c1ccccc1 (centres undefined)	inactive: -9.43%	–
O=c1c(/C=N/O)coc2ccc(Cl)cc12	inactive: -93.5%	–
O=C(CCCCCNC(=O)c1ccccc1)N/N=C/c1ccco1	inactive: 1.46%	–
COc1ccc([N+](=O)[O-])cc1NC(=O)c1ccc(N(Cc2ccccc2Cl)S(C)(=O)=O)cc1	inactive: 21.3%	–
CCc1nc2c(OCC(=O)C(C)(C)C)cccn2c1N(C)C(=O)Nc1ccccc1OC	inactive: 5.5%	–
COc1ccc(C)cc1-n1[nH]nnc1=S	inactive: 3.12%	–
O=C(CSc1n[nH]c(-c2ccncc2)n1)Nc1ccc(F)cc1	inactive: -3.42%	–
CC(=O)c1cc2c(cc1NC(=O)CCn1cnnn1)OCO2	inactive: 5.59%	–
CS(=O)(=O)c1ccc2nc(NC(=O)CCS(=O)(=O)c3ccccc3)sc2c1	inactive: -8.78%	–
Cc1ccc(S(=O)(=O)CCC(=O)OCC(=O)c2c[nH]c3ccccc23)cc1	inactive: -3.1%	–
Cc1ccc(/C=C/C(=O)O)cc1S(=O)(=O)Nc1ccc2c(c1)OCO2	inactive: 12.2%	–
O=C(NCCN1C(=O)S/C(=C/c2cccnc2)C1=O)c1ccc(S(=O)(=O)N2CCCC2)cc1	inactive: 19.8%	–
COc1ccccc1CNC(=O)C1CCC(CNS(=O)(=O)c2ccc(C)cc2)CC1 (centres undefined)	inactive: 5.35%	–
Cn1c(NC(=O)C[n+]2cc(-c3ccc(Cl)cc3)n3c2CCC3)cc(=O)n(C)c1=O	inactive: -1.35%	–
CCOC(=O)c1c(NC(=S)NCC2CCCO2)sc(C)c1C (centres undefined)	inactive: 25.2%	–
COc1cc(NC(=O)c2cc(Br)cc(C)c2OC)ccc1NC(=O)C(C)C	inactive: 20.8%	–
COc1cc(CN2CCN(C(O)(c3ccccc3)c3ccccc3)CC2)cc(OC)c1OC	inactive: 3.97%	–
COc1ccc2cc(CCNS(=O)(=O)c3c(C)cc(C)cc3C)c(=O)[nH]c2c1	inactive: 0.0437%	–
Cc1ccccc1OCC1Cc2c(nc(N)c(C#N)c2N)O1 (centres undefined)	inactive: 12.5%	–
COCCn1c(SCC(=O)Nc2cccc(C)n2)nnc1-c1ccco1	inactive: 7.01%	–
O=C(NN1C(=O)/C(=C/C=C/c2ccco2)SC1=S)c1ccncc1	inactive: 4.87%	–
COc1ccc(C(=O)NNC(=O)CCCCC(=O)NNC(=O)c2ccc(OC)cc2)cc1	inactive: 6.16%	–
CC1CCCCN1C(=O)CSc1nnc(-c2ccco2)n1C (centres undefined)	inactive: 1.93%	–

Compound	growth rescue (activation)	Potency
Cc1onc(-c2ccccc2)c1C(=O)N1CCCC(C)(C(=O)NS(=O)(=O)C2CC2)C1 (centres undefined)	inactive: -8.86%	–
Cn1c(-c2sc3cc(C(F)(F)F)cnc3c2-c2cccs2)n[nH]c1=S	inactive: 10.4%	–
CCSc1nnc(NC(=O)CCNS(=O)(=O)c2ccccc2F)s1	inactive: 8.81%	–
Cc1ccc(F)cc1NC(=O)/C=C/c1ccc(S(=O)(=O)N2CCOCC2)cc1	inactive: 9.57%	–
CCCSc1nc(=S)n(Cc2ccccc2)c(C)c1C(C)=O	inactive: 15.6%	–
CCC(=O)N1CCCC1(C)C(=O)Nc1cccc(Oc2ccccc2)c1 (centres undefined)	inactive: 11%	–
CCC1=NN(C(=O)c2cccnc2)C(O)(C(F)(F)F)C1 (centres undefined)	inactive: 5.82%	–
Cc1ccc(C)c(N(CC(=O)N2CCCC2)S(C)(=O)=O)c1	inactive: 5.01%	–
CC1=Nc2cc(C(=O)NCCCOC(C)C)ccc2Sc2ccc(C)cc21	inactive: 20.2%	–
Cc1ccc(OCC(=O)Nc2ccc(S(=O)(=O)N3CCOCC3)cc2)c(Br)c1	inactive: -2.19%	–
NS(=O)(=O)c1ccc(NC(=O)COC(=O)CCc2ccccc2)cc1	inactive: 29.7%	–
CCCSc1nnc(NC(=O)Nc2ccc(C)cc2)s1	inactive: 16.1%	–
O=C(Nc1ccc(OCC(=O)N2CCOCC2)cc1)c1cc(F)c(F)cc1Cl	inactive: 9.77%	–
O=C(O)c1nn(CCOc2cccc(Br)c2)c(=O)c2ccccc12	–	active: 17.8 µM
CCOC(=O)N1CCN(C(=O)C2CCCN(S(=O)(=O)c3ccc(F)cc3)C2)CC1 (centres undefined)	inactive: -15.9%	–
COc1cc(NC(=O)Cn2cnc3sc(C)c(S(=O)(=O)N4CCOCC4)c3c2=O)cc(OC)c1OC	inactive: -16.9%	–
CCC1C(=O)N=C(SCC(=O)Nc2ccc(C)cc2)N(c2ccccc2)C1=O (centres undefined)	inactive: 9.5%	–
O=C(COC(=O)C1CCN(S(=O)(=O)c2ccc3c(c2)OCCO3)CC1)Nc1cccc2ccccc12	inactive: -6%	–
O=C(NCCSC1CCCCC1)c1ccccc1	inactive: 29.2%	–
CC(Oc1ccc(Cl)cc1C(N)=O)C(=O)N1CCc2ccccc21 (centres undefined)	inactive: 11.4%	–
O=[N+]([O-])c1cccc(C(=S)N2CCN(c3ccc(F)cc3)CC2)c1	inactive: 8.46%	–
O=C(/C=C/c1ccc(F)cc1)NC(=S)Nc1ccccc1O	inactive: -1.72%	–
CCN1CCN(C(=O)c2ccccc2Nc2ccc(SC(F)F)cc2)CC1	inactive: 1.16%	–
CC1(Cc2cc(Cl)ccc2C(F)(F)F)C(=O)Nc2cc(C(F)(F)F)ccc21 (centres undefined)	inactive: -4.32%	–
O=C(NCC1CCCCC1)c1csc([C@@H]2O[C@H](CO)[C@H](O)[C@H](O)[C@H]2O)n1	inactive: 7.61%	–
COc1ccc(C(=O)c2cn[nH]c2-c2ccc(C)cc2O)cc1	inactive: 3.28%	–
